In all, about 310,000 compounds went through this assay and about 14,000 (4.5%) showed an effect of 50% or more. Effects have a minus sign here. This is one part of the list.
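Note: peak tail current of the secondary pulse compared with the same well before compound.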

In the assay the target is human ether-à-go-go-related gene (hERG) potassium channel (human, UniProt Q12809). As to the kind of experiment: primary screen, population patch clamp on CHO cells stably expressing hERG.
Sequence of human ether-à-go-go-related gene (hERG) potassium channel (Q12809 whole entry, looked up): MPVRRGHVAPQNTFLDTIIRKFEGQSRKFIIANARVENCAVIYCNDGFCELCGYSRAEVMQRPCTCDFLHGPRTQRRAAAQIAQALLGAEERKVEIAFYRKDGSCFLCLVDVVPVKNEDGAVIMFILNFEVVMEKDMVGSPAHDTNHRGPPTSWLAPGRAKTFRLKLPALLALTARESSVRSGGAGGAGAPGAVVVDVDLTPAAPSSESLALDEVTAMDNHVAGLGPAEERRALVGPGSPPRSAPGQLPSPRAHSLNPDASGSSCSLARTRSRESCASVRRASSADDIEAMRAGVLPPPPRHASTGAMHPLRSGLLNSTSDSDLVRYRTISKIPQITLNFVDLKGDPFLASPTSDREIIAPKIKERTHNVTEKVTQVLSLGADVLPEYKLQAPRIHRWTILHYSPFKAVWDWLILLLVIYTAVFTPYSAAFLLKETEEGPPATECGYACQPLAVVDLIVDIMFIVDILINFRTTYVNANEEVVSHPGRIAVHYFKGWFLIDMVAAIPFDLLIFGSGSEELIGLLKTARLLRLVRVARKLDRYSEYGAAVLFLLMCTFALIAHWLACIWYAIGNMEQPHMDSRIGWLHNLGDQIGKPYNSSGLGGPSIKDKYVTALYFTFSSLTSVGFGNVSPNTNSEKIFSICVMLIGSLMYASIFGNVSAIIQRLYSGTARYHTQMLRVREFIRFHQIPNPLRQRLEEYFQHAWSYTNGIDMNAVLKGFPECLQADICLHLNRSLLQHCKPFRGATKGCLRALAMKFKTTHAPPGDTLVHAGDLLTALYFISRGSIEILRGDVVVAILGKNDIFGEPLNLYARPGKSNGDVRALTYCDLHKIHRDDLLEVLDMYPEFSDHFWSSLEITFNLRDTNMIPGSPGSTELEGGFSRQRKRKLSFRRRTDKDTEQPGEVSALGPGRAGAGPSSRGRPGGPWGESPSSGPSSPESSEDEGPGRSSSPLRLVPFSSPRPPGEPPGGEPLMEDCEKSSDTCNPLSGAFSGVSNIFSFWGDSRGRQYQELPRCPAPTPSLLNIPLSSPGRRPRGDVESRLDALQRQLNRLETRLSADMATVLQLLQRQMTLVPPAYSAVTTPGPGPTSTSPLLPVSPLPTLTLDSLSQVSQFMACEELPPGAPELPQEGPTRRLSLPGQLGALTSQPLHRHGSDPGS
With `Cc1ccc(S(=O)(=O)N2CCN(S(=O)(=O)N3CCOCC3)CC2)cc1C`, the “hERG current change (%, negative = inhibition) at 10uM” value is on record as 1.37%.
The same measure for `CCSC1=NC2(CCCCC2)[NH2+]c2sc3c(c21)CCCC3.[I-]`: 10.6%; for `Cc1cccc(N2N=C(C(=O)N3CC(=O)Nc4ccccc43)CCC2=O)c1`: 16.4%; for `CC(C)c1nn2c(=O)cc(CSc3ccccc3NC(=O)c3ccccc3F)nc2s1`: -12%.
The same measure for `COC(=O)CN(n1cnnc1)S(=O)(=O)c1ccc(C)cc1`: 11.6%; for `COc1cccc(C(=O)COC(=O)c2ccc(NC(=O)c3ccccc3)cc2)c1`: 13.4%; for `CCOC(=O)Cn1cnc(-c2ccc([N+](=O)[O-])cc2)c1`: -21.7%.
The same measure for `Cc1cc(O)cc2c1C(c1ccc(F)cc1)CC1(CC(C)(C)NC(=S)N1)O2` (centres unmarked): 14.2%.
For `Nc1ncnc(NNC(=O)CNC(=O)c2c(F)cccc2Cl)c1[N+](=O)[O-]`, the “hERG current change (%, negative = inhibition) at 10uM” value came to 12%.
The same measure for `O=C(CS(=O)(=O)c1cn(CC(=O)N2CCOCC2)c2ccccc12)Nc1ccccc1`: 8.09%; for `Cc1cc(C(=O)N2CCN(C(c3ccccc3)c3ccccc3)CC2)no1`: 1.39%.
Consider `CCOC(=O)CNC(=O)C1CCC(CNS(=O)(=O)c2cccc3nsnc23)CC1` (centres unmarked), for which the “hERG current change (%, negative = inhibition) at 10uM” value is on record as -3.95%.
The same measure for `COC(=O)[C@H]1[C@@H](C)N(Cc2ccccc2)C(=O)N[C@H]1c1ccccc1`: -2.47%; for `COCCOc1ccc(C(F)(F)F)cc1NC(=O)c1ccc(C(F)(F)F)cc1`: 3.74%; for `Cc1nc(-c2cccc(NC(=O)c3ccc(-n4cccn4)cc3)c2)cs1`: 7.24%.
The same measure for `Cc1ccccc1CN(C)C(C)C(=O)Nc1ccccc1F` (centres unmarked): 19.4%.
The same measure for `COc1ccccc1N(C(=O)NCc1ccccc1)C1=NCC(C)S1` (centres unmarked): 5.85%; for `COc1ccc(-c2c(C#N)c(C)nc3c2C(=O)c2ccccc2-3)cc1`: -3.8%.
Turning to `Cn1c(=O)n(Cc2ccc(Br)cc2)c2ccccc21`, the “hERG current change (%, negative = inhibition) at 10uM” value is given as -3.58%.
Take `COc1ccc(NC(=O)C/C(C)=N/NC(=O)CCc2ccccc2)c(OC)c1`: the “hERG current change (%, negative = inhibition) at 10uM” value worked out at 4.6%.
The same measure for `CC1=NN(C(=O)CCc2ccc3c(c2)OCO3)C(O)(C(F)(F)F)C1` (centres unmarked): 20.3%.
The same measure for `CC(Nc1ccccc1CO)C(=O)Nc1cccc(Cl)c1Cl` (centres unmarked): 5.35%; for `Cc1ccc(O)c(CP(=O)(c2ccccc2)c2ccccc2)c1`: -9.34%; for `Cc1cccc(NC(=O)c2ccc(S(=O)(=O)NCc3ccco3)cc2)n1`: -1.41%.
Turning to `CN(C)S(=O)(=O)c1cccc(NC(=O)CCc2nc3sc4c(c3c(=O)[nH]2)CCCC4)c1`, the “hERG current change (%, negative = inhibition) at 10uM” value is -3.91%.
The same measure for `O=C(CN1C(=O)c2ccccc2C1=O)N1CCN(c2ccccc2)CC1`: -4.86%; for `COc1ccc(N(C(=O)c2ccc3c(c2)OCO3)C2C=CS(=O)(=O)C2)c(OC)c1` (centres unmarked): -22.3%; for `c1ccc2oc(-c3nn4c(Cn5cnc6ccccc65)nnc4s3)cc2c1`: 14.3%.
Regarding `Cc1cccc(C)c1NC(=O)c1cc(S(=O)(=O)N2CCOCC2)ccc1F`, the “hERG current change (%, negative = inhibition) at 10uM” value was -8.05%.
The same measure for `NCCCCCC(=O)O`: 8.44%; for `COc1ccc(Cn2c3ccc(OC)cc3c3nc4ccccc4nc32)cc1`: 9.31%; for `Cc1ccc(CSc2[nH]c(=O)ncc2C)cc1`: 10.7%.
The same measure for `CCc1ccc(CN(Cc2cccnc2)C(=O)/C=C/c2ccc(OC)cc2)cc1`: -25%; for `Cc1cc(C)n(CC(=O)c2ccccc2)c(=O)c1C#N`: 10.9%.
The same measure for `O=C(CCNS(=O)(=O)c1ccccc1C(F)(F)F)NCCCc1ccccc1`: 1.16%.
On to `O=[N+]([O-])c1cc(S(=O)(=O)N2CCCC2)ccc1NN=C1CCCCC1`, for which the “hERG current change (%, negative = inhibition) at 10uM” value turned out to be 12.4%.
Take `NS(=O)(=O)c1ccc(N2N=C(c3ccccc3)CC2c2ccccc2)cc1` (centres unmarked): the “hERG current change (%, negative = inhibition) at 10uM” value is given as -3.51%.
The same measure for `c1ccc2c(c1)NCC1CCCN21` (centres unmarked): -1.65%.
The same measure for `O=c1c(-c2ccccc2Cl)c[nH]n1-c1ccccc1`: 20.2%.
The same measure for `CSCCC(=O)N1CCCC(CNC(=O)c2ccccc2Cl)C1` (centres unmarked): 5.46%.
Take `COc1ccc2[nH]c(=O)c(CNc3ccc(C)cc3C)cc2c1`: the “hERG current change (%, negative = inhibition) at 10uM” value is given as -5.47%.
As for `CC1=C(C(=O)Nc2ccccc2)C(c2ccco2)C(C#N)=C(SCC(=O)Nc2cccc(C)c2C)N1` (centres unmarked), the “hERG current change (%, negative = inhibition) at 10uM” value is recorded as 17.9%.
In the case of `Cc1ccc([N+](=O)[O-])cc1NC(=O)CN(C)CCOc1ccccc1.O=C(O)C(=O)O`, the “hERG current change (%, negative = inhibition) at 10uM” value was -21.1%.
The same measure for `NC(=O)c1cc2ccccc2o/c1=N/NC(=O)c1cccc(F)c1`: -2.66%; for `COc1ccc(Cc2n[nH]c(=O)c3ccccc23)cc1OC`: -14%; for `Cn1nc(N)c2c1N=P(N1CCOCC1)(N1CCOCC1)N=C2c1ccccc1`: 0.201%.
As to `O=C(NCC1CC1)C1(C(F)(F)F)CC(CCc2ccccc2)CCCO1` (centres unmarked), the “hERG current change (%, negative = inhibition) at 10uM” value came to 3.42%.
The same measure for `Cc1ccc(CC(=O)Nc2cccc([N+](=O)[O-])c2)cc1`: 15.8%; for `CC(NC(=O)CNC(=O)c1cccc(Cl)c1)c1ccccc1` (centres unmarked): 6.56%; for `COc1ccc(CN2CCN(CCSc3ccc(C)cc3)CC2)c(OC)c1OC.O=C(O)C(=O)O`: -58.5%.
The same measure for `Cc1ccccc1-n1c(-c2ccncc2)n[nH]c1=S`: 10.6%; for `Cc1cc(C(=O)COC(=O)c2ccc[nH]c2=O)c(C)n1C1CC1`: -3.04%.
With `COc1cc(C(=O)NNC(=O)c2cc(C)[nH]n2)cc(OC)c1OC`, the “hERG current change (%, negative = inhibition) at 10uM” value stood at 18.8%.
The same measure for `O=c1nc2ccccn2c2ccc(S(=O)(=O)N3CCCCC3)cc12`: 16.6%.
On to `CCOc1cc(-c2nc(-c3ccc(OC)cc3)no2)cc(OCC)c1OCC`, for which the “hERG current change (%, negative = inhibition) at 10uM” value is 13%.
The same measure for `CCn1cc(/C=N/NS(=O)(=O)c2ccc(OC)cc2)c(C)n1`: 13.2%; for `CCOC(=O)c1cc(-c2ccccc2)n[nH]1`: 13.1%.
The same measure for `O=C1CC(N2CCSCC2)C(=O)N1c1ccccc1` (centres unmarked): 22.2%; for `Cn1c(N)c(C(=O)CCl)c(=O)n(Cc2ccccc2)c1=O`: 2.2%.
The same measure for `O=C(O)CCC(=O)N(Cc1ccco1)c1nc(-c2ccccc2)cs1`: -36.9%; for `CC(C)Oc1ccc(C(=O)CCN2CCOCC2)cc1`: 8.92%.
`CCOc1ccc(N2CC(C(=O)Nc3ccc(S(=O)(=O)NCC4CCCO4)cc3)CC2=O)cc1` (centres unmarked): the “hERG current change (%, negative = inhibition) at 10uM” value came out at 5.78%.
The same measure for `O=C(CSc1nnc2ccc(-c3ccccn3)nn12)NCCc1ccccc1`: -6.49%.
Take `Cn1c(NN)nc2ccccc2c1=O`: the “hERG current change (%, negative = inhibition) at 10uM” value worked out at 13.6%.
The same measure for `Cc1ccsc1/C=N/Nc1ccc(C(=O)O)cc1`: 19%; for `CCn1c2ccccc2c2cc(NS(=O)(=O)c3ccccc3C)ccc21`: 6.27%.
The same measure for `CCOc1ccc(NC(=O)[C@@H](NC(=O)c2ccccc2Br)C(C)C)cc1`: -5.29%.
The same measure for `OC1CCCN(c2c3c(nc4cc(-c5cccc(F)c5)nn24)CCCC3)C1` (centres unmarked): -48%; for `CCOc1ccccc1CNCCN1CCOCC1.Cl`: 14.6%; for `CCc1ccc(N2C(=O)CN(Cc3cc(OC)c(OC)c(OC)c3)C2=S)cc1`: -8.49%.
With `COc1ccc(OC)c(C2C(C(C)=O)=C(O)C(=O)N2CCN2CCOCC2)c1` (centres unmarked), the “hERG current change (%, negative = inhibition) at 10uM” value is listed as -6.92%.
Regarding `CCOc1ccc(NC(=O)COC(=O)C2C3CC4OC(=O)C2C4C3)cc1` (centres unmarked), the “hERG current change (%, negative = inhibition) at 10uM” value stood at 16.2%.
With `COc1cccc(/C=C/C(=O)OCC(=O)Nc2ccc(N3CCOCC3)cc2)c1OC`, the “hERG current change (%, negative = inhibition) at 10uM” value was determined as 34.9%.
The same measure for `CCOc1ccc(NC(=O)c2cc3ccccc3cc2OC)cc1`: 23.7%; for `O=C(Nc1cc2c(cc1Br)OCCO2)c1cccnc1`: 1.58%.
The same measure for `CC(C)N(Cc1nc(-c2ccc(Cl)cc2)no1)C(=O)CN(C)S(=O)(=O)c1ccc(Cl)cc1`: -7.68%; for `Cc1ccc(C2=NS(=O)(=O)N(C)C(C(=O)NCc3ccco3)=C2)cc1`: -58.4%; for `O=C(NCc1ccccc1)c1ccc2nc(N3CCOCC3)sc2c1`: -5.89%.
The same measure for `CC(C)c1ccc(S(=O)(=O)N2CCN(CC(=O)Nc3ccc4c(c3)OCO4)CC2)cc1`: -13.9%.
Take `CC(C)OC(=O)Cn1cc(C#N)c2ccccc21`: the “hERG current change (%, negative = inhibition) at 10uM” value stood at 5.25%.
The same measure for `CCOc1ccccc1NC(=O)Cn1nnc(C(=O)Nc2ccc(C)cc2)c1N`: 17.5%; for `CCOc1ccc(Nc2nc(C)cc(C)c2C#N)cc1`: 2.66%.
Consider `NS(=O)(=O)c1ccc(NC(=O)COC(=O)COc2ccccc2)cc1`, for which the “hERG current change (%, negative = inhibition) at 10uM” value is recorded as 20.3%.
For `COC(=O)C1=C(c2ccc(-c3ccccc3)c(F)c2)C[C@@H]2CC[C@H]1N2C(=O)NCc1cccc2ccccc12`, the “hERG current change (%, negative = inhibition) at 10uM” value turned out to be 23.3%.
The same measure for `COC(=O)CCCC1=CC2=CC(=O)C(C)(OC(=O)c3cccs3)C(=O)C2=CN1CCCCO` (centres unmarked): 3.74%; for `Cc1nc2cc(NS(=O)(=O)c3ccccc3F)ccc2s1`: -5.78%.
The same measure for `CCOC(=O)c1c(NC(=O)c2cccs2)sc(CC)c1-c1cccs1`: -11%.
The same measure for `COc1nc(/C(N)=N/O)nc(N2CCCCC2)n1`: 9.95%.
Turning to `Cc1ccc(NC(=O)C2C3C=CC(O3)C2C(=O)O)c(C)c1` (centres unmarked), the “hERG current change (%, negative = inhibition) at 10uM” value is on record as 10%.

The values above are taken from paper PMC4336329 (PLoS ONE, 2015).
